Reference: the supplement of paper PMC10369915
The list shows a part of the results. No stated cut-off is given here; in the data, active = 3.2 or more and inactive = the rest. Only a few entries rise above the background.

What was measured:
Experiment in all cases: enrichment score (SH2-bound / input frequency) (ratio); bacterial display of known human phosphotyrosine sites (pTyr-Var adds point mutants) read by sequencing; higher = stronger binding; tyrosines were phosphorylated by kinases first
Details in all cases: peptide library: pTyr-Var
[1] = target: SHP2 C-SH2 domain E139D
[2] = target: SHP2 C-SH2 domain wild-type
[3] = target: SHP2 N-SH2 domain L43F
[4] = target: SHP2 N-SH2 domain T42A
[5] = target: SHP2 N-SH2 domain T52S
[6] = target: SHP2 N-SH2 domain wild-type
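Further: displayed peptides selected on beads carrying the immobilized SH2 domain, with library peptides lacking any tyrosine serving as negative controls.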

Binder | enrichment score [1] | enrichment score [2] | enrichment score [3] | enrichment score [4] | enrichment score [5] | enrichment score [6]
ASMAKYYASGI [ACADSB_Y372_E376G] | inactive: 0.687 | inactive: 0.411 | inactive: 0.604 | inactive: 0.571 | inactive: 0.741 | inactive: 0.776
ASMAKYFASEI [ACADSB_Y372_YF] | inactive: 0.664 | inactive: 0.551 | inactive: 0.63 | inactive: 0.78 | inactive: 0.649 | inactive: 0.799
SMAKYYASEIA [ACADSB_Y373] | inactive: 0.635 | inactive: 0.69 | inactive: 0.638 | inactive: 0.53 | inactive: 0.621 | inactive: 0.658
SMAKYYASGIA [ACADSB_Y373_E376G] | inactive: 0.939 | inactive: 0.589 | inactive: 0.756 | inactive: 0.615 | inactive: 0.652 | inactive: 0.649
SMAKFYASGIA [ACADSB_Y373_E376G_YF] | inactive: 0.499 | inactive: 0.726 | inactive: 0.499 | inactive: 0.502 | inactive: 0.807 | inactive: 0.726
SMAKFYASEIA [ACADSB_Y373_YF] | inactive: 0.807 | inactive: 0.984 | inactive: 1.08 | inactive: 0.731 | inactive: 0.703 | inactive: 0.928
RVNSAYQEKVS [ACAN_Y100_D102E] | inactive: 0.737 | inactive: 0.814 | inactive: 0.756 | inactive: 0.997 | inactive: 1.02 | inactive: 0.955
MSDVPYVMNRG [ACAT1_Y161_N158D] | inactive: 0.847 | inactive: 0.762 | inactive: 0.587 | inactive: 0.694 | inactive: 0.766 | inactive: 0.883
PIAPVYAASMV [ACAT1_Y331] | inactive: 0.93 | inactive: 0.762 | inactive: 0.719 | inactive: 0.655 | inactive: 0.803 | inactive: 0.763
NMSRIYSTAKV [ACE_Y151] | inactive: 0.781 | inactive: 0.898 | inactive: 0.482 | inactive: 0.592 | inactive: 0.636 | inactive: 0.785
IGDENYGEGSS [ACO2_Y665] | inactive: 0.476 | inactive: 0.43 | inactive: 0.377 | inactive: 0.37 | inactive: 0.357 | inactive: 0.459
SEKIVYGHLDD [ACO2_Y71] | inactive: 0.702 | inactive: 0.894 | inactive: 0.97 | inactive: 0.956 | inactive: 0.792 | inactive: 0.775
SEKIVYGHVDD [ACO2_Y71_L74V] | inactive: 0.821 | inactive: 0.936 | inactive: 0.685 | inactive: 0.624 | inactive: 0.679 | inactive: 0.687
SNKLTYGTMVF [ACOX1_Y275] | inactive: 0.951 | inactive: 0.864 | active: 4.66 | active: 5.04 | active: 5.16 | inactive: 2.48
TIAIRYSHSRR [ACOXL_Y260] | inactive: 0.198 | inactive: 0.165 | inactive: 0.196 | inactive: 0.295 | inactive: 0.219 | inactive: 0.244
IIEDPYYGNDS [ACP1_Y132] | inactive: 0.695 | inactive: 0.647 | inactive: 0.787 | inactive: 0.687 | inactive: 0.646 | inactive: 0.731
IIEDPYFGNDS [ACP1_Y132_YF] | inactive: 0.929 | inactive: 0.933 | inactive: 0.941 | inactive: 0.786 | inactive: 1.58 | inactive: 0.975
IEDPYYGNDFD [ACP1_Y133_S137F] | inactive: 0.615 | inactive: 0.679 | inactive: 0.658 | inactive: 0.636 | inactive: 0.72 | inactive: 0.72
IEDPFYGNDSD [ACP1_Y133_YF] | inactive: 0.665 | inactive: 0.65 | inactive: 0.747 | inactive: 0.681 | inactive: 0.665 | inactive: 0.777
